Reference: the supplement of paper PMC9446081
About 220 (0.56%) of roughly 39,000 compounds showed activity. Some of the results follow.

These compounds were tested on Escherichia coli K-12 BW25113 (assay: relative growth (OD600 normalised to plate interquartile mean) (fraction); higher = less growth inhibition, active = 0.2 or less). Conditions: 50 µM; LB; incubation time: overnight (16-24 h).
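Note: static incubation at 37 °C against the wild-type strain, values averaged over two biological replicates.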

SMILES | relative growth
C[C@H](CO)N1C[C@H](C)[C@H](CN(C)S(=O)(=O)c2ccc(Cl)cc2)Oc2ccc(NS(=O)(=O)c3cn(C)cn3)cc2C1=O | inactive: 1.01
COc1ccccc1-c1cnc2c(c1)C(=O)N([C@H](C)CO)C[C@H](C)[C@@H](CN(C)C(=O)c1cccnc1)O2 | inactive: 0.987
COc1ccc(S(=O)(=O)N(C)C[C@@H]2OCCCC[C@H](C)Oc3ccc(NC(=O)C4CCCCC4)cc3C(=O)N([C@@H](C)CO)C[C@@H]2C)cc1 | inactive: 1.02
c1ccc(-c2ccc([C@H](c3ccccc3)n3ccnc3)cc2)cc1 | inactive: 0.983
C[C@@H]1CCCCO[C@H](CN(C)Cc2ccc(Cl)c(Cl)c2)[C@@H](C)CN([C@@H](C)CO)C(=O)c2cc(NS(=O)(=O)c3ccccc3)ccc2O1 | inactive: 0.981
O=C(C[C@@H]1C[C@H]2c3cc(NC(=O)NC4CCCC4)ccc3O[C@H]2[C@H](CO)O1)NCc1ccc(-c2ccccc2)cc1 | inactive: 0.963
Cc1noc(C)c1NC(=O)N[C@@H]1C=C[C@@H](CC(=O)NCCCN(C)C)O[C@@H]1CO | inactive: 0.98
C[C@@H]1CN([C@@H](C)CO)C(=O)c2cc(NC(=O)C3CC3)ccc2O[C@@H]1CN(C)Cc1ccc(C(=O)O)cc1 | inactive: 0.932
C[C@@H]1CN([C@@H](C)CO)S(=O)(=O)c2ccc(C#CC3(O)CCCC3)cc2O[C@@H]1CN(C)C(=O)Cc1cccnc1 | inactive: 1.01
CCCC#Cc1cnc2c(c1)C(=O)N([C@@H](C)CO)C[C@H](C)[C@H](CN(C)S(=O)(=O)c1cn(C)cn1)O2 | inactive: 0.987
C[C@@H]1CN([C@@H](C)CO)C(=O)c2cccc(NC(=O)C3CCOCC3)c2O[C@H]1CN(C)S(=O)(=O)c1ccc(Cl)cc1 | inactive: 0.99
CN1CCN(C(=O)C[C@H]2CC[C@@H]3[C@H](COC[C@@H](O)CN3Cc3ccc4c(c3)OCO4)O2)CC1 | inactive: 0.969
C[C@@H]1CCCCO[C@@H](CN(C)Cc2ccc(C(F)(F)F)cc2)[C@@H](C)CN([C@H](C)CO)C(=O)c2cc(NC(=O)c3ccccc3)ccc2O1 | inactive: 1.01
COc1ccc(NC(=O)N(C)C[C@@H]2OCCCC[C@@H](C)Oc3ccc(NC(=O)C4CCCCC4)cc3C(=O)N([C@H](C)CO)C[C@H]2C)cc1 | inactive: 1.03
Cc1ccc(S(=O)(=O)Nc2ccc3c(c2)C(=O)N([C@H](C)CO)C[C@H](C)[C@@H](CN(C)Cc2ccc(C(=O)O)cc2)OCCCC[C@H](C)O3)cc1 | inactive: 0.998
CC(=O)Oc1cncc(C(=O)O)c1 | inactive: 1.02
C[C@@H]1CN([C@@H](C)CO)C(=O)c2ccccc2-c2ccccc2CO[C@@H]1CN(C)C(=O)Nc1cccc(C(F)(F)F)c1 | inactive: 1.02
Cc1ccc(S(=O)(=O)Nc2ccc3c(c2)CC(=O)N([C@H](C)CO)C[C@H](C)[C@H](CN(C)C(=O)Nc2ccc(C(F)(F)F)cc2)O3)cc1 | inactive: 0.996
C[C@H](CO)N1C[C@H](C)[C@@H](CN(C)CC2CCCCC2)Oc2ccc(NC(=O)Nc3ccccc3)cc2C1=O | inactive: 0.997
C[C@H](CO)N1C[C@H](C)[C@@H](CN(C)S(=O)(=O)c2cn(C)cn2)Oc2ccc(NC(=O)CCN3CCOCC3)cc2CC1=O | inactive: 0.983

SMILES | relative growth
Cc1ccc(S(=O)(=O)Nc2ccc3c(c2)C(=O)N([C@@H](C)CO)C[C@H](C)[C@H](CN(C)S(C)(=O)=O)O3)cc1 | inactive: 0.95
O=C1NC(=O)[C@@H](c2ccccc2)N1 | inactive: 1.01
C[C@@H]1CN([C@@H](C)CO)C(=O)c2cc(C#Cc3cccnc3)cnc2O[C@H]1CN(C)S(C)(=O)=O | inactive: 0.897
COc1ccc(S(=O)(=O)N(C)C[C@H]2Oc3ccc(NC(=O)C4CC4)cc3C(=O)N([C@@H](C)CO)C[C@@H]2C)cc1 | inactive: 1.01
COc1ccc(S(=O)(=O)N(C)C[C@H]2Oc3ccc(NS(=O)(=O)c4cccs4)cc3C(=O)N([C@@H](C)CO)C[C@H]2C)cc1 | inactive: 1.04
CC[C@@H](C)NCc1ccsc1 | inactive: 0.977
Cn1cnc([N+](=O)[O-])c1Sc1[nH]cnc2ncnc1-2 | inactive: 1.03
Cc1noc(C)c1NC(=O)Nc1ccc2c(c1)C(=O)N([C@@H](C)CO)C[C@H](C)[C@H](CN(C)S(=O)(=O)c1ccc(F)cc1)OCCCC[C@@H](C)O2 | inactive: 1.01
C[C@@H]1CN([C@@H](C)CO)C(=O)c2cc(NC(=O)CCN3CCOCC3)ccc2O[C@H]1CN(C)S(=O)(=O)c1cccs1 | inactive: 1.01
CC(C)NC(=O)N(C)C[C@H]1Oc2ccc(NS(=O)(=O)c3ccccc3)cc2CC(=O)N([C@@H](C)CO)C[C@H]1C | inactive: 0.994
O=C(NCC1CC1)[C@@H]1[C@@H](CO)[C@@H]2Cn3c(cccc3=O)[C@H]1N2C(=O)c1cccnc1 | inactive: 0.99
C[C@@H]1CN([C@H](C)CO)C(=O)c2cccc(NC(=O)CCCCCC(=O)Nc3ccccc3N)c2O[C@H]1CN(C)C(=O)Nc1ccc(F)cc1 | inactive: 1.01
C[C@@H]1CCCCO[C@H](CN(C)C(=O)Nc2ccccc2)[C@H](C)CN([C@H](C)CO)C(=O)c2cc(NC(=O)c3ccccc3)ccc2O1 | inactive: 1.02
C[C@H](CO)N1C[C@H](C)[C@@H](CN(C)CC2CCCCC2)Oc2c(NC(=O)c3cnccn3)cccc2C1=O | inactive: 1.01
COC(=O)C1=COC(OC2OC(CO)C(O)C(O)C2O)C2C(C)CC(=O)C12 (stereo not given) | inactive: 1.11
CC(=O)N1[C@H](CO)[C@@H](c2ccccc2)[C@@H]1CNC(=O)CN1CCOCC1 | inactive: 0.998
Cc1noc(C)c1NC(=O)Nc1cccc2c1O[C@@H](CN(C)C(=O)Nc1ccc(C(F)(F)F)cc1)[C@@H](C)CN([C@@H](C)CO)C2=O | inactive: 0.964
OC[C@@H]1Cc2ccccc2CN1 | inactive: 0.997
CN1C(=O)c2cc(NC(=O)Cc3cccs3)ccc2OC[C@H]2O[C@H](CC(=O)NCc3ccc(-c4ccccc4)cc3)CC[C@H]21 | inactive: 1.02
C[C@H]1CCCCO[C@H](CN(C)C(=O)Nc2cccc3ccccc23)[C@@H](C)CN([C@@H](C)CO)C(=O)c2cc(NC(=O)CCCN(C)C)ccc2O1 | inactive: 0.979

SMILES | relative growth
COc1ccc(S(=O)(=O)N(C)C[C@@H]2OCCCC[C@@H](C)Oc3ccc(NC(=O)Nc4cccc5ccccc45)cc3C(=O)N([C@H](C)CO)C[C@@H]2C)cc1 | inactive: 1.03
C[C@@H]1CN([C@@H](C)CO)C(=O)Cc2cc(NS(=O)(=O)c3cn(C)cn3)ccc2O[C@H]1CN(C)C(=O)Nc1ccc(F)cc1 | inactive: 0.991
Cc1noc(C)c1NC(=O)Nc1ccc2c(c1)C(=O)N([C@H](C)CO)C[C@@H](C)[C@@H](CN(C)Cc1ccc(Oc3ccccc3)cc1)O2 | inactive: 1.03
C[C@H]1CN([C@@H](C)CO)C(=O)Cc2cc(NC(=O)CCN3CCOCC3)ccc2O[C@@H]1CN(C)CC1CCCCC1 | inactive: 0.979
C[C@@H]1CCCCO[C@@H](CN(C)Cc2ccncc2)[C@H](C)CN([C@@H](C)CO)C(=O)c2cc(NC(=O)Nc3ccc4c(c3)OCO4)ccc2O1 | inactive: 0.995
Cc1ccc(S(=O)(=O)Nc2ccc3c(c2)C(=O)N([C@H](C)CO)C[C@H](C)[C@H](CN(C)C(=O)CCC(F)(F)F)OCCCC[C@H](C)O3)cc1 | inactive: 1.03
CCC[C@@H]1C[C@@H](C(=O)N[C@H]([C@H]2O[C@H](SC)[C@H](O)[C@@H](O)[C@H]2O)[C@H](C)O)N(C)C1 | inactive: 0.928
CO[C@H]1O[C@H](CO)[C@@H](OC(=O)c2ccc(Br)cc2)[C@@H]2OC(=O)[C@@H](Cc3ccc4ccccc4c3)C/C=C/C[C@H](Cc3ccc4ccccc4c3)C(=O)O[C@@H]12 | inactive: 1
CNC(=O)c1cc(S(=O)(=O)N(C)C[C@@H]2Oc3ccc(NC(=O)Nc4ccc(C#N)cc4)cc3CC(=O)N([C@@H](C)CO)C[C@@H]2C)cs1 | inactive: 0.952
Cc1noc(C)c1S(=O)(=O)N(C)C[C@@H]1Oc2ccc(NC(=O)CCN3CCOCC3)cc2CC(=O)N([C@@H](C)CO)C[C@@H]1C | inactive: 1
C[C@H]1CN([C@@H](C)CO)C(=O)c2cc(NC(=O)Cc3cn(C)c4ccccc34)ccc2O[C@@H]1CN(C)S(=O)(=O)c1cn(C)cn1 | inactive: 0.997
COCC(=O)Nc1ccc2c(c1)C(=O)N(C)C[C@H](OC)[C@H](C)CN(Cc1ccccc1OC)[C@H](C)CO2 | inactive: 1.03
C[C@H]1CCCCO[C@H](CN(C)C(=O)Nc2ccc(C(F)(F)F)cc2)[C@@H](C)CN([C@@H](C)CO)C(=O)c2cc(NS(=O)(=O)c3cccs3)ccc2O1 | inactive: 0.989
C[C@H](O)C#Cc1ccc2c(c1)O[C@@H](CN(C)C)[C@@H](C)CN([C@@H](C)CO)S2(=O)=O | inactive: 1.03
COCC#Cc1ccc2c(c1)O[C@H](CN(C)Cc1ccc(F)cc1)[C@@H](C)CN([C@H](C)CO)S2(=O)=O | inactive: 1.05
COc1ccc2c(=O)cc(-c3ccccc3)oc2c1OC | inactive: 0.902
OCCc1ccc2c(c1)OCO2 | inactive: 1.02
COc1ccc(CN(C)C[C@@H]2OCCCC[C@@H](C)Oc3ccc(NC(=O)c4ccccc4)cc3C(=O)N([C@@H](C)CO)C[C@@H]2C)cc1 | inactive: 0.943
O=C(C[C@@H]1C=C[C@@H](NC(=O)CN2CCOCC2)[C@H](CO)O1)NC1CCC1 | inactive: 0.99
C[C@@H]1CCCCO[C@H](CN(C)CC2CCCCC2)[C@@H](C)CN([C@H](C)CO)C(=O)c2cc(NS(=O)(=O)c3ccccc3)ccc2O1 | inactive: 0.993
